Laboratory results published in patent EP2123666B1, “Peptides from casein for use as agents in liver pathologies” (Megmilk Snow Brand Co., Ltd., priority 2007, dated 2008).
Part of at least one peptide drawing is inferred or uncertain, most often the ends. Square brackets hold non-standard residues; d marks the D form. Ends that are not written are not given here. Peptide text beside a SMILES is read from it. pGlu = O=C1CC[C@@H](C(=O)O)N1

Tested on: human-derived hepatocyte strain (Hep G2, ATCC HB8065)
Experiment: Test for cellular injury (cellular cytotoxicity-inhibitory activity) with hydrogen peroxide, calcein-AM fluorescence
Type: cell-based
Details: hydrogen peroxide 58.8 mmol/L, 37°C, 100 minutes, ratio without the peptides defined as 100
[1] = Concentration of Peptide 1 µg/ml
[2] = Concentration of Peptide 10 µg/ml
[3] = Concentration of Peptide 100 µg/ml
[4] = Concentration of Peptide 1, 000 µg/ml

Compound	Ratio (%) of the cells which suffered injury [1] [%]	Ratio (%) of the cells which suffered injury [2] [%]	Ratio (%) of the cells which suffered injury [3] [%]	Ratio (%) of the cells which suffered injury [4] [%]
CSCC[C@H](NC(=O)[C@H](CC(N)=O)NC(=O)[C@H](CCCCN)NC(=O)[C@H](CCC(=O)O)NC(=O)[C@@H]1CCC(=O)N1)C(=O)O [(9), pyroGlu-Glu-Lys-Asn-Met] ([pGlu]EKNM-OH)	102	93	59	32
N=C(N)NCCC[C@H](N)C(=O)N1CCC[C@H]1C(=O)N[C@@H](CCCCN)C(=O)N[C@@H](Cc1c[nH]cn1)C(=O)O [(10), Arg-Pro-Lys-His] (H-RPKH-OH)	107	92	61	44
CC[C@H](C)[C@H](NC(=O)[C@@H]1CCCN1C(=O)[C@@H](N)Cc1c[nH]cn1)C(=O)N[C@@H](CCCCN)C(=O)O [(12), His-Pro-Ile-Lys] (H-HPIK-OH)	101	95	64	43
CC(C)[C@H](NC(=O)[C@@H](N)CCCCN)C(=O)N[C@@H](CC(N)=O)C(=O)O [(17), Lys-Val-Asn] (H-Lys-Val-Asn-OH)	101	81	67	50
CC[C@H](C)[C@H](N)C(=O)N[C@@H](CC(N)=O)C(=O)N1CCC[C@H]1C(=O)N[C@@H](CO)C(=O)O [(20), Ile-Asn-Pro-Ser] (H-INPS-OH)	104	85	68	48
NC(=O)CC[C@H](NC(=O)[C@@H](N)Cc1ccccc1)C(=O)N[C@@H](CO)C(=O)N[C@@H](CCC(=O)O)C(=O)O [(22), Phe-Gln-Ser-Glu] (H-FQSE-OH)	102	88	67	47
DKIHPF [(6), Asp-Lys-Ile-His-Pro-Phe]	98	92	64	34
DVPSERYLGYLEQLLRLKKYKVPQL [(19)]	104	91	70	38
FQSEEQ [(23), Phe-Gln-Ser-Glu-Glu-Gln]	106	95	60	47
GVSKVKEAMA [(27), Gly-Val-Ser-Lys-Val-Lys-Glu-Ala-Met-Ala]	99	85	70	51
HIQKEDVPSERY [(18), His-Ile-Gln-Lys-Glu-Asp-Val-Pro-Ser-Glu-Arg-Tyr]	98	85	56	39
HIQKEDVPSERYLGYLEQLLRLKKYKVPQL [(2)]	98	93	63	31
HPIKHQ [(13), His-Pro-Ile-Lys-His-Gln]	96	89	64	28
HPIKHQGLP [(14), His-Pro-Ile-Lys-His-Gln-Gly-Leu-Pro]	106	91	56	31
HPIKHQGLPQ [(15), His-Pro-Ile-Lys-His-Gln-Gly-Leu-Pro-Gln]	96	92	58	35
INPSKEN [(3), Ile-Asn-Pro-Ser-Lys-Glu-Asn]	98	94	64	49
IPPLTQTPVVV [(24), Ile-Pro-Pro-Leu-Thr-Gln-Thr-Pro-Val-Val-Val]	106	87	63	51
IPPLTQTPVVVPPFLQPEVMGVSKVKEAMAPKQKEM [(7)]	95	92	68	40
KFQSE [(21), Lys-Phe-Gln-Ser-Glu]	100	92	64	56
KFQSEEQ [(5), Lys-Phe-Gln-Ser-Glu-Glu-Gln]	96	85	64	45
LLYQEPVLGPVRGPFPI [(28), Leu-Leu-Tyr-Gln-Glu-Pro-Val-Leu-Gly-Pro-Val-Arg-Gly-Pro-Phe-Pro-Ile]	97	85	67	46
LTQTPVVVPPFLQP [(25), Leu-Thr-Gln-Thr-Pro-Val-Val-Val-Pro-Pro-Phe-Leu-Gln-Pro]	99	93	62	48
QHQKAMKP [(4), Gln-His-Gln-Lys-Ala-Met-Lys-Pro]	96	92	70	40
RPKHPIKHQGL [(11), Arg-Pro-Lys-His-Pro-Ile-Lys-His-Gln-Gly-Leu]	101	79	52	28
RPKHPIKHQGLPQE [(1), Arg-Pro-Lys-His-Pro-Ile-Lys-His-Gln-Gly-Leu-Pro-Gln-Glu]	101	82	65	35
TQTPVVVPPFLQPEVM [(26), Thr-Gln-Thr-Pro-Val-Val-Val-Pro-Pro-Phe-Leu-Gln-Pro-Glu-Val-Met]	107	81	55	38
VAPFP [(16), Val-Ala-Pro-Phe-Pro]	101	82	69	46
YQEPVLGPVR [(8), Tyr-Gln-Glu-Pro-Val-Leu-Gly-Pro-Val-Arg]	98	85	58	38
